Target: T1, human TNF-R (full length, clone pCAV/NOT-TNF-R) expressed on COS-7 cells (human, UniProt P20333 23-461)
T1 construct: also called huTNF-R; recombinant TNF receptor
T1 sequence: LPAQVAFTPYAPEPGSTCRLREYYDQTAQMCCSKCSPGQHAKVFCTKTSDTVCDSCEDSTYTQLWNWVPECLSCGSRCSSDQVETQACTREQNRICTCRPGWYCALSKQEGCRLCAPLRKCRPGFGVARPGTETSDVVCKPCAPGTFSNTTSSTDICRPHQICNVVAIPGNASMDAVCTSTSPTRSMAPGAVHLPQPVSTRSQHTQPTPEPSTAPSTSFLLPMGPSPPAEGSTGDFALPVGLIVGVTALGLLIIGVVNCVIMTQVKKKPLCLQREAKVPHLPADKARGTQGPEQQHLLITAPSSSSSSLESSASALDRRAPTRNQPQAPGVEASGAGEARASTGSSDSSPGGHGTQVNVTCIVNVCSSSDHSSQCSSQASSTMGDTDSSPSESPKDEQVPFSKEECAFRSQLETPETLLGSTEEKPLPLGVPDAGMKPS
Assay: plate binding and autoradiography on transfected COS-7 cell monolayers; the pool was narrowed to a single clone

binding result: binds
B1: 125I-labeled FLAG-TNF (recombinant human TNFα fusion protein containing a hydrophilic octapeptide at the N-terminus) (ligand)
chain: not shown
modifications: radioiodinated (125I, IODO-GEN)
notes: also called 125I-TNF

— US20030082736A1 (IMMUNEX, published 2003)
